Measurements: patent US8304419B2, “Chemical compounds” (priority 2007, dated 2012)
Structures can show the parent of a compound that is named as a salt.

What was measured:
Assay in all cases: microbe, parasite or virus in culture
HIV-1 V106A RT mutant = settings: Human immunodeficiency virus 1, HeLa, read-out: IC50 against V106A, HeLa cell assay
HIV-1 Y188L RT mutant = settings: Human immunodeficiency virus 1, HeLa, read-out: IC50 against Y188L
HIV-1 Y181C RT mutant = settings: Human immunodeficiency virus 1, HeLa, read-out: IC50 against Y181C, HeLa cell assay
HIV-1 K103N RT mutant = settings: Human immunodeficiency virus 1, HeLa, read-out: IC50 against K103N, HeLa cell assay

C=CCc1cc(C#N)cc(Oc2c(Cl)ccc(CNC(=O)c3[nH]c(C)nc3Cl)c2F)c1 [Example 248, 4-chloro-N-[(4-chloro-3-{[3-cyano-5-(2-propen-1-yl)phenyl]oxy}-2-fluorophenyl)methyl]-2-methyl-1H-imidazole-5-carboxamide trifluoroacetate]
IC50 (HIV-1 V106A RT mutant): < 10 nM
IC50 (HIV-1 Y188L RT mutant): < 10 nM
IC50 (HIV-1 Y181C RT mutant): < 10 nM
IC50 (HIV-1 K103N RT mutant): < 10 nM

CCc1ccc(CNC(=O)c2[nH]c(C)nc2Cl)c(F)c1Oc1cc(Cl)cc(C#N)c1 [Example 249, 4-chloro-N-({3-[(3-chloro-5-cyanophenyl)oxy]-4-ethyl-2-fluorophenyl}methyl)-2-methyl-1H-imidazole-5-carboxamide]
IC50 (HIV-1 V106A RT mutant): < 10 nM
IC50 (HIV-1 Y188L RT mutant): < 10 nM
IC50 (HIV-1 Y181C RT mutant): < 10 nM
IC50 (HIV-1 K103N RT mutant): < 10 nM

CCc1ccc(CNC(=O)c2[nH]cnc2Cl)c(F)c1Oc1cc(Cl)cc(C#N)c1 [Example 250, 4-chloro-N-({3-[(3-chloro-5-cyanophenyl)oxy]-4-ethyl-2-fluorophenyl}methyl)-1H-imidazole-5-carboxamide]
IC50 (HIV-1 V106A RT mutant): < 10 nM
IC50 (HIV-1 Y188L RT mutant): < 10 nM
IC50 (HIV-1 Y181C RT mutant): < 10 nM
IC50 (HIV-1 K103N RT mutant): < 10 nM

CCc1ccc(CNC(=O)c2[nH]c(N)nc2Cl)c(F)c1Oc1cc(Cl)cc(C#N)c1 [Example 251, 2-amino-4-chloro-N-({3-[(3-chloro-5-cyanophenyl)oxy]-4-ethyl-2-fluorophenyl}methyl)-1H-imidazole-5-carboxamide]
IC50 (HIV-1 V106A RT mutant): < 10 nM
IC50 (HIV-1 Y188L RT mutant): < 10 nM
IC50 (HIV-1 Y181C RT mutant): < 10 nM
IC50 (HIV-1 K103N RT mutant): < 10 nM

N#Cc1cc(Cl)cc(Oc2c(C(F)F)ccc(CNC(=O)c3[nH]cnc3Cl)c2F)c1 [Example 252, 4-chloro-N-{[3-[(3-chloro-5-cyanophenyl)oxy]-4-(difluoromethyl)-2-fluorophenyl]methyl}-1H-imidazole-5-carboxamide]
IC50 (HIV-1 V106A RT mutant): < 10 nM
IC50 (HIV-1 Y188L RT mutant): < 10 nM
IC50 (HIV-1 Y181C RT mutant): < 10 nM
IC50 (HIV-1 K103N RT mutant): < 10 nM

N#Cc1cc(Cl)cc(Oc2c(C(F)F)ccc(CNC(=O)c3[nH]c(N)nc3Cl)c2F)c1 [Example 253, 2-amino-4-chloro-N-{[3-[(3-chloro-5-cyanophenyl)oxy]-4-(difluoromethyl)-2-fluorophenyl]methyl}-1H-imidazole-5-carboxamide]
IC50 (HIV-1 V106A RT mutant): < 10 nM
IC50 (HIV-1 Y188L RT mutant): < 10 nM
IC50 (HIV-1 Y181C RT mutant): < 10 nM
IC50 (HIV-1 K103N RT mutant): < 10 nM

Cc1nc(Cl)c(C(=O)NCc2ccc(C(F)F)c(Oc3cc(Cl)cc(C#N)c3)c2F)[nH]1 [Example 254, 4-chloro-N-{[3-[(3-chloro-5-cyanophenyl)oxy]-4-(difluoromethyl)-2-fluorophenyl]methyl}-2-methyl-1H-imidazole-5-carboxamide]
IC50 (HIV-1 V106A RT mutant): < 10 nM
IC50 (HIV-1 Y188L RT mutant): 10 to 1000 nM
IC50 (HIV-1 Y181C RT mutant): < 10 nM
IC50 (HIV-1 K103N RT mutant): < 10 nM

C=Cc1ccc(CNC(=O)c2[nH]c(C)nc2Cl)c(F)c1Oc1cc(Cl)cc(C#N)c1 [Example 269, 4-Chloro-N-({3-[(3-chloro-5-cyanophenyl)oxy]-4-ethenyl-2-fluorophenyl}methyl)-2-methyl-1H-imidazole-5-carboxamide]
IC50 (HIV-1 V106A RT mutant): < 10 nM
IC50 (HIV-1 Y188L RT mutant): < 10 nM
IC50 (HIV-1 Y181C RT mutant): < 10 nM
IC50 (HIV-1 K103N RT mutant): < 10 nM

Cc1nc(Cl)c(C(=O)NCc2ccc(C3CC3)c(Oc3cc(Cl)cc(C#N)c3)c2F)[nH]1 [Example 270, 4-Chloro-N-({3-[(3-chloro-5-cyanophenyl)oxy]-4-cyclopropyl-2-fluorophenyl}methyl)-2-methyl-1H-imidazole-5-carboxamide]
IC50 (HIV-1 V106A RT mutant): < 10 nM
IC50 (HIV-1 Y188L RT mutant): < 10 nM
IC50 (HIV-1 Y181C RT mutant): < 10 nM
IC50 (HIV-1 K103N RT mutant): < 10 nM

Cc1cc(C#N)cc(Oc2c(Cl)ccc(CNC(=O)c3[nH]c(C)nc3Cl)c2F)n1 [Example 271, 4-Chloro-N-({4-chloro-3-[(4-cyano-6-methyl-2-pyridinyl)oxy]-2-fluorophenyl}methyl)-2-methyl-1H-imidazole-5-carboxamide]
IC50 (HIV-1 V106A RT mutant): < 10 nM
IC50 (HIV-1 Y188L RT mutant): < 10 nM
IC50 (HIV-1 Y181C RT mutant): < 10 nM
IC50 (HIV-1 K103N RT mutant): < 10 nM

C=Cc1cc(C#N)cc(Oc2c(Cl)ccc(CNC(=O)c3[nH]c(C)nc3Cl)c2F)n1 [Example 272, 4-Chloro-N-({4-chloro-3-[(4-cyano-6-ethenyl-2-pyridinyl)oxy]-2-fluorophenyl}methyl)-2-methyl-1H-imidazole-5-carboxamide]
IC50 (HIV-1 V106A RT mutant): < 10 nM
IC50 (HIV-1 Y188L RT mutant): < 10 nM
IC50 (HIV-1 Y181C RT mutant): < 10 nM
IC50 (HIV-1 K103N RT mutant): < 10 nM

Cc1nc(Cl)c(C(=O)NCc2ccc(Cl)c(Oc3cc(C#N)cc(C4CC4)n3)c2F)[nH]1 [Example 273, 4-Chloro-N-({4-chloro-3-[(4-cyano-6-cyclopropyl-2-pyridinyl)oxy]-2-fluorophenyl}methyl)-2-methyl-1H-imidazole-5-carboxamide]
IC50 (HIV-1 V106A RT mutant): < 10 nM
IC50 (HIV-1 Y188L RT mutant): < 10 nM
IC50 (HIV-1 Y181C RT mutant): < 10 nM
IC50 (HIV-1 K103N RT mutant): < 10 nM

CCc1cc(C#N)cc(Oc2c(Cl)ccc(CNC(=O)c3[nH]c(C)nc3Cl)c2F)n1 [Example 274, 4-Chloro-N-({4-chloro-3-[(4-cyano-6-ethyl-2-pyridinyl)oxy]-2-fluorophenyl}methyl)-2-methyl-1H-imidazole-5-carboxamide]
IC50 (HIV-1 V106A RT mutant): < 10 nM
IC50 (HIV-1 Y188L RT mutant): < 10 nM
IC50 (HIV-1 Y181C RT mutant): < 10 nM
IC50 (HIV-1 K103N RT mutant): < 10 nM

N#Cc1cc(Oc2c(Cl)ccc(CNC(=O)c3[nH]cnc3Br)c2F)cc(C(F)(F)F)c1 [Example 286, 4-bromo-N-[(4-chloro-3-{[3-cyano-5-(trifluoromethyl)phenyl]oxy}-2-fluorophenyl)methyl]-1H-imidazole-5-carboxamide]
IC50 (HIV-1 V106A RT mutant): < 10 nM
IC50 (HIV-1 Y188L RT mutant): < 10 nM
IC50 (HIV-1 Y181C RT mutant): < 10 nM
IC50 (HIV-1 K103N RT mutant): < 10 nM

CCc1cc(Cl)cc(Oc2c(Cl)ccc(CNC(=O)c3[nH]cnc3Cl)c2F)c1 [Example 290, 4-chloro-N-({4-chloro-3-[(3-chloro-5-ethylphenyl)oxy]-2-fluorophenyl}methyl)-1H-imidazole-5-carboxamide]
IC50 (HIV-1 V106A RT mutant): < 10 nM
IC50 (HIV-1 Y188L RT mutant): < 10 nM
IC50 (HIV-1 Y181C RT mutant): < 10 nM
IC50 (HIV-1 K103N RT mutant): < 10 nM

N#C/C=C/c1cc(Cl)cc(Oc2c(Cl)ccc(CNC(=O)c3[nH]cnc3Cl)c2F)c1 [Example 291, 4-chloro-N-{[4-chloro-3-({3-chloro-5-[(E)-2-cyanoethenyl]phenyl}oxy)-2-fluorophenyl]methyl}-1H-imidazole-5-carboxamide]
IC50 (HIV-1 V106A RT mutant): < 10 nM
IC50 (HIV-1 Y188L RT mutant): < 10 nM
IC50 (HIV-1 Y181C RT mutant): < 10 nM
IC50 (HIV-1 K103N RT mutant): < 10 nM

C#Cc1cc(Cl)cc(Oc2c(Cl)ccc(CNC(=O)c3[nH]cnc3Cl)c2F)c1 [Example 293, 4-chloro-N-({4-chloro-3-[(3-chloro-5-ethynylphenyl)oxy]-2-fluorophenyl}methyl)-1H-imidazole-5-carboxamide]
IC50 (HIV-1 V106A RT mutant): < 10 nM
IC50 (HIV-1 Y188L RT mutant): < 10 nM
IC50 (HIV-1 Y181C RT mutant): < 10 nM
IC50 (HIV-1 K103N RT mutant): < 10 nM

Cc1nc(Cl)c(C(=O)NCc2ccc(Cl)c(Oc3cc(Br)cc(C#N)c3)c2F)[nH]1 [Example 299, N-({3-[(3-bromo-5-cyanophenyl)oxy]-4-chloro-2-fluorophenyl}methyl)-4-chloro-2-methyl-1H-imidazole-5-carboxamide]
IC50 (HIV-1 V106A RT mutant): < 10 nM
IC50 (HIV-1 Y188L RT mutant): < 10 nM
IC50 (HIV-1 Y181C RT mutant): < 10 nM
IC50 (HIV-1 K103N RT mutant): < 10 nM

Cc1nc(Cl)c(C(=O)NCc2ccc(Cl)c(Oc3cc(C#N)cc(C(F)F)c3)c2F)[nH]1 [Example 300, 4-chloro-N-[(4-chloro-3-{[3-cyano-5-(difluoromethyl)phenyl]oxy}-2-fluorophenyl)methyl]-2-methyl-1H-imidazole-5-carboxamide trifluoroacetate]
IC50 (HIV-1 V106A RT mutant): < 10 nM
IC50 (HIV-1 Y188L RT mutant): < 10 nM
IC50 (HIV-1 Y181C RT mutant): < 10 nM
IC50 (HIV-1 K103N RT mutant): < 10 nM

Cc1nc(Cl)c(C(=O)NCc2cc(C#N)c(Cl)c(Oc3cc(Cl)cc(C#N)c3)c2F)[nH]1 [Example 304, 4-chloro-N-({4-chloro-3-[(3-chloro-5-cyanophenyl)oxy]-5-cyano-2-fluorophenyl}methyl)-2-methyl-1H-imidazole-5-carboxamide trifluoroacetate]
IC50 (HIV-1 V106A RT mutant): < 10 nM
IC50 (HIV-1 Y188L RT mutant): < 10 nM
IC50 (HIV-1 Y181C RT mutant): < 10 nM
IC50 (HIV-1 K103N RT mutant): < 10 nM

Cc1cc(C#N)cc(Oc2c(Cl)ccc(CNC(=O)c3[nH]c(C)nc3Cl)c2F)c1 [Example 305, 4-chloro-N-({4-chloro-3-[(3-cyano-5-methylphenyl)oxy]-2-fluorophenyl}methyl)-2-methyl-1H-imidazole-5-carboxamide trifluoroacetate]
IC50 (HIV-1 V106A RT mutant): < 10 nM
IC50 (HIV-1 Y188L RT mutant): < 10 nM
IC50 (HIV-1 Y181C RT mutant): < 10 nM
IC50 (HIV-1 K103N RT mutant): < 10 nM

Cc1nc(Cl)c(C(=O)NCc2ccc(Cl)c(Oc3cc(Cl)cc(C#N)c3Cl)c2F)[nH]1 [Example 306, 4-chloro-N-({4-chloro-3-[(2,5-dichloro-3-cyanophenyl)oxy]-2-fluorophenyl}methyl)-2-methyl-1H-imidazole-5-carboxamide trifluoroacetate]
IC50 (HIV-1 V106A RT mutant): < 10 nM
IC50 (HIV-1 Y188L RT mutant): < 10 nM
IC50 (HIV-1 Y181C RT mutant): < 10 nM
IC50 (HIV-1 K103N RT mutant): < 10 nM

N#Cc1cc(Oc2c(Cl)ccc(CNC(=O)c3[nH]c(N)nc3Cl)c2F)cc(C2CC2)c1 [Example 307, 2-amino-4-chloro-N-({4-chloro-3-[(3-cyano-5-cyclopropylphenyl)oxy]-2-fluorophenyl}methyl)-1H-imidazole-5-carboxamide trifluoroacetate]
IC50 (HIV-1 V106A RT mutant): < 10 nM
IC50 (HIV-1 Y188L RT mutant): < 10 nM
IC50 (HIV-1 Y181C RT mutant): < 10 nM
IC50 (HIV-1 K103N RT mutant): < 10 nM

Cc1nc(Cl)c(C(=O)NCc2ccc(Cl)c(Oc3cc(C#N)cc(C4CC4)c3)c2F)[nH]1 [Example 308, 4-chloro-N-({4-chloro-3-[(3-cyano-5-cyclopropylphenyl)oxy]-2-fluorophenyl}methyl)-2-methyl-1H-imidazole-5-carboxamide trifluoroacetate]
IC50 (HIV-1 V106A RT mutant): < 10 nM
IC50 (HIV-1 Y188L RT mutant): < 10 nM
IC50 (HIV-1 Y181C RT mutant): < 10 nM
IC50 (HIV-1 K103N RT mutant): < 10 nM

N#Cc1cc(Oc2c(Cl)ccc(CNC(=O)c3[nH]cnc3Cl)c2F)cc(C(F)F)c1 [Example 309, 4-chloro-N-[(4-chloro-3-{[3-cyano-5-(difluoromethyl)phenyl]oxy}-2-fluorophenyl)methyl]-1H-imidazole-5-carboxamide]
IC50 (HIV-1 V106A RT mutant): < 10 nM
IC50 (HIV-1 Y188L RT mutant): < 10 nM
IC50 (HIV-1 Y181C RT mutant): < 10 nM
IC50 (HIV-1 K103N RT mutant): < 10 nM
